Reference: paper PMC4022732
These are yes or no findings as the source states them, for the method shown. Some results given as binding are weak or reduced against the parent protein; the word gives no strength. Where a sequence is shown, tags or fusion partners need not be part of it.

Molecular target: recombinant full length Mtb GroEL2 (N-terminal 6XHis-tag, C-terminal S-tag) (Mycobacterium tuberculosis H37Rv), P9WPE7
Assay: SEC; unpublished results: recombinant GroEL2 over a range of concentrations on the size exclusion column; both purified
Conditions: remark: other sources report otherwise

B1: recombinant full length Mtb GroEL2 (N-terminal 6XHis-tag, C-terminal S-tag), P9WPE7 1-540 (protein)
chain: MAKTIAYDEEARRGLERGLNALADAVKVTLGPKGRNVVLEKKWGAPTITNDGVSIAKEIELEDPYEKIGAELVKEVAKKTDDVAGDGTTTATVLAQALVREGLRNVAAGANPLGLKRGIEKAVEKVTETLLKGAKEVETKEQIAATAAISAGDQSIGDLIAEAMDKVGNEGVITVEESNTFGLQLELTEGMRFDKGYISGYFVTDPERQEAVLEDPYILLVSSKVSTVKDLLPLLEKVIGAGKPLLIIAEDVEGEALSTLVVNKIRGTFKSVAVKAPGFGDRRKAMLQDMAILTGGQVISEEVGLTLENADLSLLGKARKVVVTKDETTIVEGAGDTDAIAGRVAQIRQEIENSDSDYDREKLQERLAKLAGGVAVIKAGAATEVELKERKHRIEDAVRNAKAAVEEGIVAGGGVTLLQAAPTLDELKLEGDEATGANIVKVALEAPLKQIAFNSGLEPGVVAEKVRNLPAGHGLNAQTGVYEDLLAAGVADPVKVTRSALQNAASIAGLFLTTEAVVADKPEKEKASVPGGGDMGGMDF
binding: binds
